Experimental findings from a collection of fitness landscapes (doi:10.1126/science.1257360) are described below.

Sequences and labels used below:
B1: PhoQ; a variant is named by its letters at X, in order, P23837 (parent)
chain: MKKLLRLFFPLSLRVRFLLATAAVVLVLSLAYGMVALIGYSVSFDKTTFRLLRGESNLFYTLAKWENNKLHVELPENIDKQSPTMTLIYDENGQLLWAQRDVPWLMKMIQPDWLKSNGFHEIEADVNDTSLLLSGDHSIQQQLQEVREDDDDAEMTHSVAVNVYPATSRMPKLTIVVVDTIPVELKSSYMVWSWFIYVLSANLLLVIPLLWVAAWWSLRPIEALAKEVRELEEHNRELLNPATTRELTSLVRNLNRLLKSERERYDKYRTTLTDLTHSLKTPLXXLQXXLRSLRSEKMSVSDAEPVMLEQISRISQQIGYYLHRASMRGGTLLSRELHPVAPLLDNLTSALNKVYQRKGVNISLDISPEISFVGEQNDFVEVMGNVLDNACKYCLEFVEISARQTDEHLYIVVEDDGPGIPLSKREVIFDRGQRVDTLRPGQGVGLAVAREITEQYEGKIVAGESMLGGARMEVIFGRQHSAPKDE

This is one part of the list. A value given as a limit tells only on which side of the number the result lay.

The variants in this assay derive from B1. The assay is described as follows: enrichment ratio after two sorts for PhoP signalling (ratio (wild type AVST 3.29)); higher = more functional. As to conditions: with PhoP (E. coli).
PIEM: the enrichment ratio is no more than 0.25.

As for INNA, the enrichment ratio is no more than 0.25. In the case of GPDR, the enrichment ratio is no more than 0.25. Under PSLH stands no more than 0.25. As to IAHD, the enrichment ratio is no more than 0.25. Under QQAN stands no more than 0.25.

For the variant FVTQ, the enrichment ratio was no more than 0.25.

On to AYNH, for which the enrichment ratio is no more than 0.25.

On to MSYL, for which the enrichment ratio came out at 11.

In the case of MGEV, the enrichment ratio is no more than 0.25. As for QNIW, the enrichment ratio is no more than 0.25.

For AKWL, the enrichment ratio is no more than 0.25.

In the case of YNWT, the enrichment ratio was no more than 0.25. The result for MPGM reads no more than 0.25; that for LFYS, no more than 0.25; that for QSPH, no more than 0.25. Under DYMD stands no more than 0.25; under KQDL, no more than 0.25. The result for TQND reads no more than 0.25; that for HNMI, no more than 0.25. Take NFFK: the enrichment ratio came out at 2.51.

Take TDCW: the enrichment ratio is no more than 0.25.

Turning to HEYS, the enrichment ratio is no more than 0.25.

As to TPFH, the enrichment ratio is no more than 0.25. As to SYVT, the enrichment ratio was no more than 0.25. As for GIWD, the enrichment ratio was no more than 0.25. Under HNLA stands no more than 0.25; under RCFP, no more than 0.25; under DGIY, no more than 0.25. The result for DFTN reads no more than 0.25; that for DSVW, no more than 0.25. The result for LELK reads no more than 0.25.

On to KDNN, for which the enrichment ratio is no more than 0.25.

As for PRWM, the enrichment ratio was no more than 0.25. Under DKNH stands no more than 0.25; under DQVM, no more than 0.25; under GHHM, no more than 0.25. For the variant RMWR, the enrichment ratio is no more than 0.25. As for MNSY, the enrichment ratio was no more than 0.25.

GHTL: the enrichment ratio is no more than 0.25. Under DDQL stands no more than 0.25; under RGMN, no more than 0.25.

For GHES, the enrichment ratio was no more than 0.25. Under GAIN stands 5.96; under YNGL, no more than 0.25; under PVYS, no more than 0.25. The result for LHSE reads no more than 0.25; that for IQPN, no more than 0.25; that for DKSH, no more than 0.25.

Regarding GVSS, the enrichment ratio was determined as 0.963. As to SSKT, the enrichment ratio is no more than 0.25.

Take NHHV: the enrichment ratio was no more than 0.25. Under YHNK stands no more than 0.25.

In the case of VWCQ, the enrichment ratio is no more than 0.25. With QSQC, the enrichment ratio was no more than 0.25. LQVC: the enrichment ratio was no more than 0.25. The result for WVMP reads no more than 0.25; that for WNGW, 8.14. Turning to FYKH, the enrichment ratio was no more than 0.25.

TWFC: the enrichment ratio is no more than 0.25. Take DYEA: the enrichment ratio was no more than 0.25.

For FWCK, the enrichment ratio is no more than 0.25. Under RSNS stands no more than 0.25. Under TYWS stands no more than 0.25. The result for PRYS reads no more than 0.25; that for TIQC, 0.791. As to NQKE, the enrichment ratio was no more than 0.25. The result for LRGG reads no more than 0.25; that for LVTR, no more than 0.25; that for NCMI, no more than 0.25. Under YRYV stands no more than 0.25.

For the variant PDHC, the enrichment ratio was no more than 0.25. The result for IVWE reads no more than 0.25; that for TLQA, no more than 0.25. Under WGVC stands no more than 0.25; under GSLH, 6.16; under VHME, no more than 0.25.

As for YWFA, the enrichment ratio was no more than 0.25.

For the variant DDHL, the enrichment ratio is no more than 0.25. With ESTG, the enrichment ratio was no more than 0.25. Under VLEC stands no more than 0.25; under YYWN, no more than 0.25.

Turning to TERR, the enrichment ratio was no more than 0.25. The result for FQMC reads no more than 0.25; that for NKIC, no more than 0.25; that for MLGC, no more than 0.25. Under FMSS stands no more than 0.25.

Consider PVDA, for which the enrichment ratio was no more than 0.25.

As to FKVR, the enrichment ratio is no more than 0.25. The result for WGEL reads no more than 0.25; that for PNKR, no more than 0.25; that for ELKQ, no more than 0.25. On to FQAC, for which the enrichment ratio was no more than 0.25. For the variant LGQG, the enrichment ratio is no more than 0.25. The result for ACCT reads 5.15; that for GHIL, no more than 0.25. The result for FPTM reads no more than 0.25; that for TTED, no more than 0.25; that for AQWH, no more than 0.25.

As for WGVR, the enrichment ratio is no more than 0.25.

Turning to FIPI, the enrichment ratio is no more than 0.25. Regarding LRHP, the enrichment ratio was no more than 0.25. Consider SPWF, for which the enrichment ratio was no more than 0.25. The result for SFEV reads no more than 0.25; that for DTNA, no more than 0.25; that for IPQT, no more than 0.25. For SPRA, the enrichment ratio was no more than 0.25. Under PKGK stands no more than 0.25; under WVYH, no more than 0.25; under ENPL, no more than 0.25. Take VQIG: the enrichment ratio is no more than 0.25.

With WFPY, the enrichment ratio is no more than 0.25.

Regarding YWHY, the enrichment ratio was no more than 0.25. Under IDLD stands no more than 0.25. The result for WFHV reads no more than 0.25; that for HERV, no more than 0.25. The result for VKPY reads no more than 0.25; that for YDHP, no more than 0.25. FVVK: the enrichment ratio is no more than 0.25. EMWC: the enrichment ratio was no more than 0.25. For the variant TCTK, the enrichment ratio is 5.27.

Take FAYP: the enrichment ratio is no more than 0.25. The result for FSWI reads no more than 0.25. The result for NFRQ reads no more than 0.25; that for PTTE, no more than 0.25.

Regarding SDSA, the enrichment ratio is no more than 0.25.

As to DSHL, the enrichment ratio was no more than 0.25. Under YSHI stands no more than 0.25; under HDNN, no more than 0.25. Under WPWI stands no more than 0.25. Under KTTG stands no more than 0.25. In the case of FCYR, the enrichment ratio is no more than 0.25. On to IKNS, for which the enrichment ratio was no more than 0.25.

Turning to IQWG, the enrichment ratio is no more than 0.25. Regarding FDQN, the enrichment ratio is no more than 0.25. As to FEPK, the enrichment ratio is no more than 0.25. On to RDDD, for which the enrichment ratio was no more than 0.25. The result for TFLW reads no more than 0.25. Consider LFYH, for which the enrichment ratio is no more than 0.25. Under IHFI stands no more than 0.25; under MIHD, no more than 0.25.

As for VNKM, the enrichment ratio was no more than 0.25. The result for SYSR reads no more than 0.25; that for GLTM, 9.77; that for VCVF, no more than 0.25.

For GFAH, the enrichment ratio was no more than 0.25. The result for KGPM reads no more than 0.25; that for PMFI, no more than 0.25; that for FPPR, no more than 0.25.

Regarding NPIE, the enrichment ratio is no more than 0.25.

As for MPSA, the enrichment ratio is no more than 0.25.

For the variant DLQS, the enrichment ratio was no more than 0.25. The result for RKFW reads no more than 0.25.
